Drawing on paper PMC2902519, “Impairment of Protein Trafficking upon Overexpression and Mutation of Optineurin” (PLoS ONE, 2010), this text covers binding for six substances.

By UniProt entry, the sequences of proteins in these tests, tags left out. Where a name states a change or a piece, a line headed by the entry shows the natural chain unless it says otherwise.
UniProt Q96CV9: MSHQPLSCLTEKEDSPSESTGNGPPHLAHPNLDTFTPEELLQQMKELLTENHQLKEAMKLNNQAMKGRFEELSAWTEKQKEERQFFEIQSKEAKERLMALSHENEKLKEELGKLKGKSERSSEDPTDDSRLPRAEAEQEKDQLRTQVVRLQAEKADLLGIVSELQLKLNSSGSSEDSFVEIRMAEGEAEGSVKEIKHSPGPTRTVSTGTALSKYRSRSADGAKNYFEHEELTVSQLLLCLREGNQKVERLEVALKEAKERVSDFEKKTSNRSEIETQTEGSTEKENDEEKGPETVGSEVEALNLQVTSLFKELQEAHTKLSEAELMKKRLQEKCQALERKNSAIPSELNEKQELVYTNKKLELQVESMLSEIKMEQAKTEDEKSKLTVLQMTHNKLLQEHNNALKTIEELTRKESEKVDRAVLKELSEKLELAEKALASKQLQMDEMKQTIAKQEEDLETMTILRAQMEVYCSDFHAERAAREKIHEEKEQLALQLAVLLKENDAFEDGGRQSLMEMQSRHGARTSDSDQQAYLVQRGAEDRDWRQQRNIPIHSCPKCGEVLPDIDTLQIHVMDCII
UniProt P51149: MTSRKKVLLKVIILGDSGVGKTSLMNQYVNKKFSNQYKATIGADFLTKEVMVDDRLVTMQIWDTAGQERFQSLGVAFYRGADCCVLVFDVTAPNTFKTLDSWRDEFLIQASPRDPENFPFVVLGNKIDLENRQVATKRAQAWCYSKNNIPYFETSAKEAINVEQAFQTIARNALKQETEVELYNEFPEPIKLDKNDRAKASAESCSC
UniProt P62491: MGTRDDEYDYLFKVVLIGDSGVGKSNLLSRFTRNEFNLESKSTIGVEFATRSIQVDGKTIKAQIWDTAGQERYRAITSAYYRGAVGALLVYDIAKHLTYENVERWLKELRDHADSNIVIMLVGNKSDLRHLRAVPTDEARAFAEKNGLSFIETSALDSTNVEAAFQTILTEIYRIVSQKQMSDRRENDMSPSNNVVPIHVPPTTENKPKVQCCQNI
UniProt P20339: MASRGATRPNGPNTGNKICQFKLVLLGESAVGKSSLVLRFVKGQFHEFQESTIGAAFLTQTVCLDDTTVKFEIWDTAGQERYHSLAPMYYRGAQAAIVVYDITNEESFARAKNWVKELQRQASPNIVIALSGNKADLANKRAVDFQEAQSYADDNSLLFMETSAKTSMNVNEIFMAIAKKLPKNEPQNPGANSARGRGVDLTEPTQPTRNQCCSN
UniProt Q99376: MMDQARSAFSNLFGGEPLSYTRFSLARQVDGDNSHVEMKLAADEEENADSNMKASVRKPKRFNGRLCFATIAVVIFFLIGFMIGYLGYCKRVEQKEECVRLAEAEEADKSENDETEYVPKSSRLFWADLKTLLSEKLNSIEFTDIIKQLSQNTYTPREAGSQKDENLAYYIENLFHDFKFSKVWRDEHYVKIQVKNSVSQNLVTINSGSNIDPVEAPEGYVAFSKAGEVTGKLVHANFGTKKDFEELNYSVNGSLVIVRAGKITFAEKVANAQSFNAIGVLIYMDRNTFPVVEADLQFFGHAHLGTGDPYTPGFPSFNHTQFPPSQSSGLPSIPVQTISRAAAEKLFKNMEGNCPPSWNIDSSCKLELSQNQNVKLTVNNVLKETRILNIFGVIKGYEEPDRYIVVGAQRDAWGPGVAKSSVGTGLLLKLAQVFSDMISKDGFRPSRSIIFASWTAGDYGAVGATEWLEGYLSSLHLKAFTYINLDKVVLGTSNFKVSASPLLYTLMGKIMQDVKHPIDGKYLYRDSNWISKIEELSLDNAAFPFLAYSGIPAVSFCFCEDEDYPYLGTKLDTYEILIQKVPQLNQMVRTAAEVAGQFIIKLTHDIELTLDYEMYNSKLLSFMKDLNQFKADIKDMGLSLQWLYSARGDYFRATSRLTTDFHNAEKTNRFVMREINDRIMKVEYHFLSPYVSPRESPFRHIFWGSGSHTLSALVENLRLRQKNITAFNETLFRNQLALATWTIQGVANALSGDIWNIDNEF

Results are given in words; binding and its absence hold for the method and conditions named. Binding seen in cells or lysates may run through a third protein. Some entries that bind do so weakly or less than the wild type.

Assay [1] deals with FLAG-tagged wild type optineurin (FLAG-OPTNWT) (human) (UniProt Q96CV9). The experiment in a line: co-IP; RPE cells co-transfected with pTarget-FLAG-OPTN and pEGFP-N1 or pGFP-Rab8, -Rab4, -Rab5, -Rab11 or -Rab7; lysate in IP buffer (50 mM Tris-HCl pH 7.5, 150 mM NaCl, 1% Nonidet P40, 0.5% sodium deoxycholate) precipitated with rabbit polyclonal anti-optineurin; eluates blotted with anti-FLAG and anti-GFP.

Assay [2] has as its target FLAG-tagged E50K optineurin (FLAG-OPTN E50K) (human) (UniProt Q96CV9). The experiment in a line: co-IP; RPE cells co-transfected 16 h with OPTN-His and FLAG-OPTN of the same variant (WT, E50K or L157A); lysate precipitated with polyclonal anti-His; eluates blotted with monoclonal anti-FLAG and anti-His.
Assay [3] concerns the target wild type optineurin-green fluorescence protein (OPTNWT-GFP) (human) (UniProt Q96CV9). As to the kind of experiment: co-IP; Tet-on inducible RGC5 cells, doxycycline 1 ug/ml 16 h, expressing OPTNWT-, OPTN_(E50K)- or OPTN_(L157A)-GFP; lysate precipitated with polyclonal anti-GFP; eluates blotted with monoclonal anti-Rab8 or anti-TfR and anti-GFP; band intensity ratio relative to wild type.

For assay [4], the target named is FLAG-tagged L157A optineurin (FLAG-OPTN L157A) (human) (UniProt Q96CV9). As to the kind of experiment: co-IP; RPE cells co-transfected 16 h with OPTN-His and FLAG-OPTN of the same variant (WT, E50K or L157A); lysate precipitated with polyclonal anti-His; eluates blotted with monoclonal anti-FLAG and anti-His.

For the substance GFP-Rab7 (from UniProt P51149 1-207), the binding result in assay [1] was “no binding”.
The same measure, in the same setting: the entry for GFP-Rab11 (from UniProt P62491 1-216) is “no binding”; for GFP-Rab5 (from UniProt P20339 1-215) it is “no binding”.
Take “FLAG-tagged E50K optineurin (FLAG-OPTN E50K) (from UniProt Q96CV9 1-577)”: in assay [2], the binding result is “binds”.
Regarding “endogenous transferrin receptor (TfR) of RGC5 cells (from UniProt Q99376 1-761)”, in assay [3], the binding entry is “binds”.
As for “FLAG-tagged L157A optineurin (FLAG-OPTN L157A) (from UniProt Q96CV9 1-577)”, in assay [4], the binding entry was “binds”.
